Results on 106 compounds are retold here after PubChem BioAssay AID1347073 (National Center for Advancing Translational Sciences (NCATS), 2019).

Screen size: about 45,000 compounds; about 200 (0.44%) were called active. Another 7% or so got no clear call; they are omitted. Calls follow the shape of the dose curve; as a rule, active = well fitted activation curve with a large enough effect; inconclusive = small, poorly fitted or top-dose-only effect; inactive = no such curve, though single readings can be large or run the other way. The list shows a part of the results.

This assay in a line: qHTS of TDP-43 Inhibitors: NCGC Sytravon Library Screen. Also: 0% is about no effect; nearly all actives have a fitted effect of over 55% in size. To be noted: yeast TDP-43 toxicity rescue, BacTiter-Glo growth, 24 h; series mostly up to 46.1 µM; growth rescue (activation): at the top concentration. In a few lines: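 TDP-43-expressing yeast, pregrown in raffinose, seeded at OD600 0.02 in galactose medium with compound for 24 hr at 30 deg C. Growth read by BacTiter-Glo luminescence, so rescue of toxicity appears as activation.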
Consider `O=C(NC(=S)Nc1nc(-c2cccc([N+](=O)[O-])c2)cs1)c1ccccc1Cl`, for which the “growth rescue (activation)” value was inactive: -22.6%.
Turning to `COc1cccc(N2C(=O)CN(Cc3cc(OC)c(OC)c(OC)c3)C2=S)c1`, the “growth rescue (activation)” value is inactive: 2.56%.
Consider `Cc1cc(C)cc(N(CCC#N)C(=O)CN2C(=O)NC3(CCCC3)C2=O)c1`, for which the “growth rescue (activation)” value is inactive: -3.93%.
The result for `CC(C)(C)c1ccc(CC(=O)N2CCC2(C)C(=O)NS(=O)(=O)c2cccs2)cc1` (stereo unspecified) reads inactive: -8.14%; that for `CC(C)(C)S(=O)(=O)/C(C#N)=N/Nc1ccc(S(N)(=O)=O)cc1`, inactive: 8.08%.
For `COc1cccc(C2NC(=O)CCC2[N+](=O)[O-])c1` (stereo unspecified), the “growth rescue (activation)” value was inactive: -0.909%.
With `Cc1cc(C(=O)N/N=C/c2c(C)nn(-c3ccccc3)c2C)c(C)o1`, the “growth rescue (activation)” value was inactive: 14.9%.
The result for `O=C(COC(=O)c1ccc2c(c1)C(=O)N(Cc1ccco1)C2=O)NCC(F)(F)F` reads inactive: -16.1%.
The result for `C=CCC(CC(O)COCCC)C(=O)NNC(=S)Nc1ccccc1` (stereo unspecified) reads inactive: 17%; that for `COc1ccc(N(CC(=O)Nc2cc(C)cc(C)c2)S(=O)(=O)c2ccccc2[N+](=O)[O-])c(OC)c1`, inactive: 10.7%; that for `CC1CCCC(C)N1C(=O)COC(=O)c1ccc(S(=O)(=O)N(C)c2ccccc2)cc1` (stereo unspecified), inactive: 6.28%.
The result for `COc1ccc(N(C(=O)c2snc(C(N)=O)c2N)C(C(=O)NC2CCCC2)c2ccco2)cc1OC` (stereo unspecified) reads inactive: -0.242%.
In the case of `Nc1nc(-c2cccc(F)c2)cs1`, the “growth rescue (activation)” value is inactive: 25.9%.
The result for `O=C(COc1ccccc1C(=O)O)Nc1nc2ccc([N+](=O)[O-])cc2s1` reads inactive: 3.7%; that for `Cc1nc2ccc(S(=O)(=O)N(C)CC(=O)Nc3ccc(C(C)C)cc3)cc2s1`, inactive: 12.9%; that for `CC(NC(=O)COC(=O)C12CC3CC(CC(O)(C3)C1)C2)c1ccccc1` (stereo unspecified), inactive: 7.61%.
Turning to `Cc1noc(NS(=O)(=O)c2ccc(NC(=O)/C=C/c3ccccc3)cc2)c1C`, the “growth rescue (activation)” value is inactive: 11.4%.
The value for `Cc1ccc(S(=O)(=O)NNC(=O)c2sc(NS(=O)(=O)c3ccccc3)nc2C)cc1` was inactive: 11%.
As for `CCOC(=O)c1c(NC(=O)CSc2nnc(-c3ccc(Cl)cc3)o2)sc2c1CCC2`, the “growth rescue (activation)” value is inactive: -28.8%.
The result for `Cc1ccc(S(=O)(=O)N2CCN(CCc3ccncc3)CC2)cc1` reads inactive: 3.9%; that for `O=C(Nc1cc(Cl)ccc1N1CCOCC1)c1ccc(=O)[nH]c1`, inactive: -7.04%.
The value for `CCSCCOC(=O)C1=C(C)N(C)C(=O)NC1c1cc(OC)ccc1OC` (stereo unspecified) was inactive: 0.305%.
The value for `O=C(NCCCN1CCCC1)[C@H](CSCc1ccccc1)N1Cc2ccccc2C1=O` was inactive: -33.2%; that for `C#CC1(NC(=O)NCCCC)CCCCC1` was inactive: 11.3%.
For `CC(=O)N1CCC(N(CCN2CCOCC2)C(=S)Nc2ccc(C)cc2C)CC1`, the “growth rescue (activation)” value is inactive: 5.91%.
In the case of `CCc1ccc(CN(C)CC(=O)Nc2ccc3c(c2)CCC3)cc1`, the “growth rescue (activation)” value is inactive: -5.9%.
The result for `COc1ccc(NC(=O)CSc2ccc3c(c2)OCCO3)cc1S(N)(=O)=O` reads inactive: 8.4%; that for `CSc1nsc(SCC(=O)Nc2ccccc2C(=O)O)n1`, inactive: 1.59%.
The value for `Cc1ccc(C(=O)/C=C/Nc2cccc([N+](=O)[O-])c2)o1` was inactive: 1.96%.
The result for `O=[N+]([O-])c1cc(S(=O)(=O)N2CCOCC2)ccc1NS(=O)(=O)c1ccccc1` reads inactive: 7.75%.
`COc1ccc(S(=O)(=O)Nc2ccccc2Cl)cc1NC(C)=O`: the “growth rescue (activation)” value was inactive: -19.7%.
The value for `CN(C)S(=O)(=O)c1ccc(C(=O)OCC2COC(C)(C)O2)cc1` (stereo unspecified) was inactive: 15.5%; that for `CCOC(=O)C1CCC(CN(Cc2ccccc2)S(=O)(=O)c2ccc([N+](=O)[O-])cc2)CC1` (stereo unspecified) was inactive: -2.59%; that for `Cc1cc(=O)n2ncnc2n1COCCO` was inactive: -1.77%.
On to `CC(=O)c1c(C)[nH]c(C(=O)CSc2ccc(F)cc2)c1C`, for which the “growth rescue (activation)” value was inactive: -4.53%.
The value for `COc1ccc(C)cc1S(=O)(=O)Nc1cccc(C)c1` was inactive: 5.72%; that for `COC(=O)NNC(=S)NCc1ccc(C)cc1` was inactive: 18.5%; that for `Cc1ccc(NC(=O)CSc2nnc(-c3ccco3)o2)c(C)c1` was inactive: 9.74%.
The result for `CCOC(=O)N1CCN(C(=O)COC(=O)c2cc(Cl)cc(Cl)c2)CC1` reads inactive: 31.5%; that for `COc1ccc2oc(C(=O)NCCN3CCOCC3)c(C)c2c1OC`, inactive: -7.95%.
The value for `Cc1ccc(C)c(Cn2c(O)c(N=NC(=S)Nc3ccccc3F)c3ccccc32)c1` was inactive: -13%.
For the compound `COc1ccc(NC(=O)/C=C/c2ccc(C)o2)cc1S(=O)(=O)N1CCOCC1`, the “growth rescue (activation)” value was inactive: 4.47%.
The value for `COc1ccc2c(CC(=O)NNC(=O)c3ccc(O)cc3)coc2c1` was inactive: 16.7%; that for `CCOC(=O)c1[nH]c(C)c(C(=O)OCC(=O)Nc2sc3c(c2C#N)CCCCC3)c1C` was inactive: 10.9%.
Take `O=C(Nc1ccc2c(c1)CN(Cc1ccco1)CC2)C1CCCO1` (stereo unspecified): the “growth rescue (activation)” value was inactive: 14.7%.
The result for `COc1cc(C(=O)NCC(=O)N/N=C\C(C)=C/c2ccccc2)cc(OC)c1OC` reads inactive: 1.76%; that for `CC(C)Nc1ncnc2c1ncn2[C@H]1CN(CCN2CCOCC2)C[C@@H](CO)O1`, inactive: 16.4%; that for `CC(c1n[nH]c(=S)n1-c1ccccc1)N1CCCCC1` (stereo unspecified), inactive: -5.2%.
The result for `COCCNC(=S)N/N=C(\C)c1ccc(OC)cc1` reads inactive: 17%.
The result for `CCOC(=O)c1cnc2c(C#N)c(C)nn2c1C` reads inactive: 2.21%; that for `CC(=O)Nc1ccc(S(=O)(=O)NNc2cccc(C)c2)cc1`, inactive: 15.3%.
For the compound `Cc1ccc(C)c(OCC(=O)Nc2ccc(S(=O)(=O)Nc3onc(C)c3C)cc2)c1`, the “growth rescue (activation)” value was inactive: 9.26%.
The value for `Cn1nnnc1SCC(=O)NCc1cc([N+](=O)[O-])ccc1O` was inactive: 7.3%.
The result for `N#C/C(=C\c1ccccc1OCc1ccc(C(=O)O)cc1)c1ccccc1` reads inactive: 16.9%; that for `CCCN(CCC)CCCNC(=O)CN1C(=O)CSc2ccc(S(=O)(=O)N3CCOCC3)cc21`, inactive: -1.7%.
As to `C=CCc1c(C)nc(SCc2nc3ccccc3c(=O)[nH]2)[nH]c1=O`, the “growth rescue (activation)” value was inactive: 28.9%.
Consider `COc1ccc(CCNC(=O)CSC2=Nc3ccccc3C3=NC(C(C)C)C(=O)N23)cc1OC` (stereo unspecified), for which the “growth rescue (activation)” value is inactive: 11.8%.
The value for `CCN(CC)C(=S)SCC(=O)NC12CC3CC(CC(C3)C1)C2` was inactive: -7.93%.
The result for `O=C(Cn1nc(-c2ccccc2)oc1=O)OCC(=O)c1ccccc1` reads inactive: -13.7%; that for `CCC(=O)NC(=S)Nc1ccc(NC(=O)c2ccco2)cc1`, inactive: 15.3%; that for `O=C(CNc1cccc([N+](=O)[O-])c1)N1CCN(S(=O)(=O)c2ccc(Cl)cc2)CC1`, inactive: 18.1%.
Turning to `COc1ccc(CCNC(=O)COC(=O)/C=C/c2ccc3c(c2)OCO3)cc1`, the “growth rescue (activation)” value is inactive: -0.247%.
As to `CCN(c1ccccc1)S(=O)(=O)c1ccc(OC)c(NC(=O)C2=NN(c3ccccc3)C(=O)CC2)c1`, the “growth rescue (activation)” value was inactive: 2.12%.
The result for `O=C(CSc1nnc(-c2ccco2)o1)c1ccc(O)cc1O` reads inactive: 9.58%; that for `CCN(CC)C(=O)C1CCCN(C(=S)Nc2cccc3ccccc23)C1` (stereo unspecified), inactive: 7.77%; that for `COc1ccc(C(=O)Nc2ccnn2C2CCN(CC3CC=CCC3)CC2)cc1` (stereo unspecified), inactive: 2.33%.
The value for `CC(C)CCOP(=O)(c1ccc(N(C)C)cc1)C(O)c1ccc(Cl)cc1Cl` (stereo unspecified) was inactive: -73.6%; that for `CC(=O)Nc1ccc(NC(=O)COC(=O)Cn2cnc3ccccc32)cc1` was inactive: 9.1%; that for `COc1ccc(S(=O)(=O)Nc2ccccc2C(=O)N2CCOCC2)cc1C` was inactive: -7.28%.
Consider `Cc1cc(NC(=O)c2cncc(Br)c2)n(-c2ccccn2)n1`, for which the “growth rescue (activation)” value is inactive: 5.83%.
Regarding `CCOC(=O)C1(C)CCN1C(=O)c1cc(OC)ccc1Br` (stereo unspecified), the “growth rescue (activation)” value was inactive: 3.63%.
The result for `O=c1cnn(Cc2c(Cl)cccc2Cl)c2ccccc12` reads inactive: -20.1%.
The value for `O=C(CN1CCN(c2ccc(O)cc2)CC1)Nc1ccc(S(=O)(=O)N2CCCC2)cc1` was inactive: -20%.
The result for `CC(C)(CCC(=S)N1CCOCC1)C1CCCCC1` reads inactive: 23.7%.
As for `CCC1(c2ccccc2)NC(=O)N(CC(=O)NCc2ccccc2OC)C1=O` (stereo unspecified), the “growth rescue (activation)” value was inactive: 7.15%.
On to `NNC(=O)c1sc2cc(C(F)(F)F)cnc2c1-c1cccs1`, for which the “growth rescue (activation)” value is inactive: 11.4%.
`CC(C)CNC(=O)C1CCN(Cc2ccc(OCc3ccccc3)cc2)CC1`: the “growth rescue (activation)” value was inactive: 7.62%.
The result for `O=C(O)C(=O)Nc1ccc(NC(=O)C(c2ccccc2)c2ccccc2)cc1` reads inactive: 8.85%; that for `CCc1ccccc1NC(=O)CC1NCCNC1=O` (stereo unspecified), inactive: 5.25%.
The value for `CCC(CC)C(=O)N(C)c1c(C)nc2c(OCc3ccc(F)c(F)c3)cccn12` was inactive: 14.1%; that for `CCCCc1nnc(NC(=O)C2CC(=O)N(c3ccc(C)cc3)C2)s1` (stereo unspecified) was inactive: 0.673%.
The value for `O=C(Oc1ccc(C(=S)N2CCC(O)CC2)cc1)c1ccc(Cl)cc1` was inactive: 23.7%; that for `CCCC(C(=O)NC1=NCCS1)c1ccccc1` (stereo unspecified) was inactive: 1.97%.
Consider `CC(=O)Nc1cccc2c1C(=O)N(c1cccc(OC(C)=O)c1)C2=O`, for which the “growth rescue (activation)” value is inactive: -1.91%.
Consider `CC(C)C(=O)Nc1nc2ccc(S(C)(=O)=O)cc2s1`, for which the “growth rescue (activation)” value is inactive: 2.41%.
The value for `COc1ccc(N2CCN(C(=O)c3cc4ccccc4o3)CC2)cc1` was inactive: 12.4%.
The result for `COc1cc(/C=C/C(=O)O)cc(S(=O)(=O)Nc2ccc(F)cc2)c1OC` reads inactive: 0.633%; that for `Cc1ccc(-c2nc3ncccc3o2)cc1NC(=O)c1ccccc1`, inactive: -10.2%.
The value for `COc1cccc(CNC(=O)CCC2CCCN(c3cc(C)nc(N(C)C)n3)C2)c1` (stereo unspecified) was inactive: 9.4%; that for `CNc1nc(-c2cccc(C(=O)N(C)C)c2)cn2ccnc12` was inactive: 3.93%.
As for `O=c1[nH]cnc2c1sc1nc(-c3ccccc3)c3c(c12)CCCC3`, the “growth rescue (activation)” value is inactive: 10.3%.
The result for `Cc1c(C(=O)NC2CCN(Cc3ccccc3)C2)oc2ccc(Br)cc12` (stereo unspecified) reads inactive: 6.09%; that for `CCn1c(N2CCN(CC(=O)c3c(C)n(C)c4ccccc34)CC2)nc2c1c(=O)[nH]c(=O)n2C`, inactive: 12.1%.
The result for `COc1cc(C(C)=O)ccc1OCC(=O)N1CCc2ccccc2C1` reads inactive: 8.28%; that for `CCOC(=O)CCSc1nc(N2CCOCC2)c2c(c1C#N)CC(C)(C)OC2`, inactive: 2.04%.
On to `CC(Cl)C(=O)NNC(=O)CNS(=O)(=O)c1ccccc1` (stereo unspecified), for which the “growth rescue (activation)” value is inactive: 2.75%.
Consider `CCOC(=O)C1(C)CCCN1C(=O)c1ccc(N(C)C)cc1` (stereo unspecified), for which the “growth rescue (activation)” value was inactive: 14.2%.
The value for `Cc1ccc(SCc2cc(=O)[nH]c(Nc3nc(C)c4ccc(C)cc4n3)n2)cc1` was inactive: 11.8%; that for `CCOc1cc(NC(=S)NC)c(OCC)cc1NC(=O)c1ccco1` was inactive: 7.78%.
With `CCc1ccc(CN(C)C(=O)CCc2nnc(CCc3ccccc3OC)o2)nc1`, the “growth rescue (activation)” value is inactive: 12.8%.
The value for `O=[N+]([O-])c1ccc(Cl)c(S(=O)(=O)/N=C(/Nc2cccnc2)c2ccccc2)c1` was inactive: 7.47%; that for `CN(C)c1ccnc(Nc2ccc(F)cc2)c1C#N` was inactive: 9.98%; that for `Cc1ccc(NS(=O)(=O)c2cc(C(=O)NCc3cccnc3)ccc2C)cc1` was inactive: 12.7%.
The value for `COc1cc(CN2CCN(Cc3ccccc3C(F)(F)F)CC2)cc(OC)c1OC` was inactive: -1.97%; that for `O=C(O)C1CCC(Cn2c(SCc3cc(=O)n4cc(Cl)ccc4n3)nc3ccsc3c2=O)CC1` (stereo unspecified) was inactive: -7.15%; that for `CC(=O)c1cc(F)ccc1OCC(=O)N1CCCc2ccccc21` was inactive: 32.3%.
